Reference: PubChem BioAssay AID504832 (National Center for Advancing Translational Sciences (NCATS), 2011)
Screen size: about 310,000 compounds; about 18,000 (5.8%) were called active. Inconclusive means that the source gave no clear call. Such entries were picked first, then a sample of the others. Calls come from the whole dose curve; as a rule, active = well fitted inhibition curve with a large enough effect; inconclusive = small, poorly fitted or top-dose-only effect, or another doubt; inactive = no such curve, though single readings can be large or run the other way. No potency is given beside an inconclusive call; the fits are too rough.
% is set by controls: 0 for no effect and ±100 for the full control effect; potency is the fitted concentration of half-maximal effect; tags give direction and shape of the fitted curve.

Assay: Primary qHTS for delayed death inhibitors of the malarial parasite plastid, 48 hour incubation
Conditions: P. falciparum luciferase growth in erythrocytes; series mostly up to 28.7 µM; activity change, negative = inhibition: at the top concentration
How it was run: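 Luciferase-expressing parasites in RBCs, 2% Hct / 0.1% parasitemia final; RPMI 1640 + 0.5% Albumax; 37 C, 5% CO2, one generation; luminescence read-out, lower signal = inhibition.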
For `O=C(N/N=C/c1ccc(OCc2ccccc2)cc1)c1ccncc1`, the “activity change, negative = inhibition” value was inactive: 3.41%. With `CCc1ccc(OCC(=O)Nc2ccc(CN3CCCCC3)cc2)cc1` the Potency was inconclusive [inhibitor, single point]. With `CCN(CC)C(=O)OCc1c(-c2cccc(OC)c2)ncc2ccccc12` the Potency was inconclusive [inhibitor, single point]. In the case of `CC(NC(=O)Nc1ccc([N+](=O)[O-])cc1)C(c1cccs1)N1CCCC1` (centres undefined), the Potency was inconclusive [inhibitor, single point]. With `CCOc1cc(NC(=O)c2ccccn2)c(OCC)cc1NC(=O)CC(C)C` the Potency was active: 13.1 µM. With `CC(C)C(=O)N1CCC2(CC1)Oc1ccc(Cl)cc1C(=O)C21CC(c2ccc(Cl)cc2)=NO1` (centres undefined) the Potency was inconclusive [inhibitor, partial curve, poor fit]. For `CCOC(=O)c1oc2ccc(Br)cc2c1NC(=O)CN1CCN(C)CC1`, the Potency was inconclusive [inhibitor, single point]. In the case of `O=C(O)C(Nc1nc(C(F)(F)F)nc2ccccc12)c1ccccc1` (centres undefined), the Potency was inconclusive [inhibitor, partial curve]. With `Cc1ccc(CN2CCC(c3cc(-c4cccs4)n[nH]3)CC2)cc1` the Potency was inconclusive [inhibitor, single point]. For `O=C(O)/C=C/c1cccc2c1OCCO2`, the Potency was inconclusive [inhibitor, single point]. For `COc1ccc(CN2C(=O)C(CC(C)C)Nc3ncnc(N4CCN(c5ccccc5)CC4)c32)cc1` (centres undefined), the Potency was active: 2.62 µM. In the case of `Cn1c(=O)c2c(nc(N/N=C/c3ccc(OC(=O)c4ccco4)cc3)n2Cc2ccccc2Cl)n(C)c1=O`, the Potency was inconclusive [inhibitor, single point]. For `CCc1cccc(NC(=O)CCc2c(C)nn(-c3ccc(N4CCOCC4)nn3)c2C)c1`, the Potency was inconclusive [inhibitor, partial curve, poor fit]. With `Cc1ccc(NC(=O)COC(=O)c2ccc(S(=O)(=O)N3CCCCC3)cc2)cc1` the Potency was inconclusive [inhibitor, single point]. In the case of `N#Cc1ccc2ccn(CC(=O)NC3CCCCCC3)c2c1`, the Potency was inconclusive [inhibitor, partial curve, poor fit]. With `O=C(c1ccco1)N(Cc1ccc([N+](=O)[O-])cc1)c1ccc(Cl)cc1` the Potency was inconclusive [inhibitor, partial curve]. With `O=C(CN1C(=O)COc2ccccc21)N1CCN(C2CCCCC2)CC1` the “activity change, negative = inhibition” value was inactive: -6.77%. For `CCOc1cc(C(=O)Nc2ccc(S(=O)(=O)N3CCCCC3)cc2)ccc1OCC(=O)N1CCOCC1`, the Potency was inconclusive [inhibitor, single point]. With `CCCCn1c(N)c(N(CC(C)C)C(=O)c2c(-c3ccccc3)noc2C)c(=O)[nH]c1=O` the Potency was inconclusive [inhibitor, single point]. In the case of `CCN(CC)c1ccc(/C=N/N=C(c2ccccc2)c2ccccc2)c(O)c1`, the Potency was inconclusive [inhibitor, single point]. In the case of `O=C(NCc1ccccc1)c1ccc(S(=O)(=O)Nc2cccc(C(F)(F)F)c2)cc1`, the Potency was inconclusive [inhibitor, partial curve, poor fit]. In the case of `COc1ccc(CNC(=O)C(C)Sc2nc3ccccc3c(=O)n2CC2CCCO2)cc1` (centres undefined), the Potency was inconclusive [inhibitor, single point]. For `Cc1ccc(NC(=O)CSCC(=O)N(C)Cc2ccc(Cl)c(Cl)c2)cc1`, the Potency was inconclusive [inhibitor, single point]. With `O=c1c2c3c(sc2ncn1/N=C/c1ccc([N+](=O)[O-])o1)CCCC3` the Potency was inconclusive [inhibitor, partial curve, poor fit]. With `O=C(O)CN1C(=O)/C(=C/c2ccc(SCc3ccccc3)o2)SC1=S` the “activity change, negative = inhibition” value was inactive: 35.8%. With `CC(C)Oc1ccc(OCCSc2nc3ccccc3n2CC(=O)O)cc1` the “activity change, negative = inhibition” value was inactive: -23.4%. With `CCN(CC(=O)Nc1cc(Cl)ccc1C)C(=O)C1COc2ccccc2O1` (centres undefined) the Potency was inconclusive [inhibitor, single point]. In the case of `Cc1cc(C)c2c(CC(=O)NCCc3ccccc3)coc2c1`, the Potency was inconclusive [inhibitor, full curve]. With `Cn1ccc(NC(=O)CCl)n1` the Potency was inconclusive [inhibitor, partial curve, poor fit]. In the case of `C=CCSc1nc2ccccc2c(=O)n1Cc1ccccc1`, the Potency was active: 11.7 µM. For `O=C(N/N=C/c1ccccc1)c1cc[n+]([O-])cc1`, the “activity change, negative = inhibition” value was inactive: 9.31%. In the case of `CC(=O)c1c(C)[nH]c(C(=O)NCc2ccccc2)c1C`, the “activity change, negative = inhibition” value was inactive: 44.6%. For `NS(=O)(=O)c1ccc(S(=O)(=O)N(Cc2ccccc2F)CC2CCCO2)cc1` (centres undefined), the Potency was inconclusive [inhibitor, full curve, poor fit]. For `O=C(NCC(c1ccco1)N1CCCCC1)c1ccc2c(c1)S(=O)(=O)c1ccccc1C2=O` (centres undefined), the “activity change, negative = inhibition” value was inactive: 0%. In the case of `CC(=C1C(=O)c2ccccc2C1=O)N1CCN(Cc2ccccc2)CC1`, the “activity change, negative = inhibition” value was inactive: 1.62%. With `O=C(NCCc1ccccc1)C1=CCN(S(=O)(=O)c2ccccc2)CC1` the “activity change, negative = inhibition” value was inactive: 3.76%. For `O=C(Nc1cccc(F)c1)c1c(F)c(F)c(F)c(F)c1F`, the Potency was active: 13.1 µM. With `COc1cccc(C(=O)NNc2nc(C)cc(C)n2)c1` the “activity change, negative = inhibition” value was inactive: 20.8%. With `Cc1cc(C)n(-c2nnc(SCC(=O)NC3CCCC3)c3ccccc23)n1` the Potency was inconclusive [inhibitor, single point]. In the case of `CCN1C(=O)C(O)(CC(=O)/C=C/C=C/c2ccccc2)c2ccccc21` (centres undefined), the Potency was inconclusive [inhibitor, single point]. With `S=c1[nH]nc(-c2ccncc2)n1CC1CCCO1` (centres undefined) the “activity change, negative = inhibition” value was inactive: 2.92%. With `Cc1noc(-c2ccccc2)c1NC(=O)Nc1ccc(Cl)cc1` the Potency was inconclusive [inhibitor, single point]. For `CC(=O)[C@@H]1[C@@H](C(=O)c2ccc(F)cc2)[C@]2(C(=O)Nc3ccccc32)[C@H]2C=Cc3cc(F)ccc3N12`, the Potency was inconclusive [inhibitor, partial curve]. In the case of `Cc1cccc(C)c1NC(=S)N/N=C/c1ccc(C(=O)O)cc1`, the “activity change, negative = inhibition” value was inactive: -7.17%. With `COc1ccc(C(=O)N=c2sc3c(C)ccc(OC)c3n2C)cc1` the “activity change, negative = inhibition” value was inactive: 137%. For `Oc1cc(-c2ccc(N3CCCCC3)nc2)cc2cccnc12`, the Potency was active: 4.15 µM. With `CC(C)CN1CCC(=O)N([C@H](CSc2ccc(Br)cc2)Cc2ccccc2)CC1` the Potency was inconclusive [inhibitor, single point]. For `O=C(c1cc(COc2ccc(F)cc2Cl)on1)N1CCC(OCc2cccnc2)CC1`, the Potency was inconclusive [inhibitor, single point]. With `CCOc1ccc(C(C(=O)NCCC(C)C)N(CCO)C(=O)c2snc(C(N)=O)c2N)cc1` (centres undefined) the Potency was inconclusive [inhibitor, full curve, poor fit]. For `Cc1ccccc1NC(=O)C(C)c1ccc(-c2ccccc2)c(F)c1` (centres undefined), the Potency was inconclusive [inhibitor, single point]. In the case of `Cc1ccc(C)c(S(=O)(=O)N2CCN(C(=O)c3cc(S(=O)(=O)NCc4ccccc4)ccc3C)CC2)c1`, the Potency was inconclusive [inhibitor, partial curve]. In the case of `CC(=O)N1CCN(c2ccccc2NC(=O)COc2cc(C)cc(C)c2)CC1`, the Potency was inconclusive [inhibitor, partial curve]. With `CCOc1ccc(/C=N/Nc2ccc(C(F)(F)F)cc2[N+](=O)[O-])cc1O` the Potency was inconclusive [inhibitor, single point]. With `COc1ccc(/C=C2\CCCC3C2=NN(C(=O)c2scnc2C)C3c2ccc(OC)cc2)cc1` (centres undefined) the Potency was inconclusive [inhibitor, single point]. In the case of `Nc1ccc(S(=O)(=O)NC2(C(F)(F)F)NC(=O)N(c3ccccc3F)C2=O)cc1` (centres undefined), the “activity change, negative = inhibition” value was inactive: 36.4%. With `CCNc1nc(NCC)n2c(SCC(=O)Nc3ccc(OC(F)F)cc3)nnc2n1` the Potency was inconclusive [inhibitor, partial curve]. For `O=C(CCS(=O)(=O)c1cccc2nonc12)NC1CCCCCC1`, the “activity change, negative = inhibition” value was inactive: 7.27%. With `COc1ccc(C(=O)N2CCOC2CNC(=O)C(=O)NCc2ccc(Cl)cc2)cc1` (centres undefined) the “activity change, negative = inhibition” value was inactive: -0.362%. For `COc1ccccc1/C=C/C=N/n1c(-c2ccccc2)n[nH]c1=S`, the Potency was inconclusive [inhibitor, partial curve, poor fit]. For `Cc1nnc(Oc2ccccc2F)c2ccccc12`, the “activity change, negative = inhibition” value was inactive: 57.7%. For `O=C1NC[C@H](c2ccccc2)N(CCc2cc(C(F)(F)F)cc(C(F)(F)F)c2)C1=O`, the Potency was inconclusive [inhibitor, single point]. For `COc1ccc(Cl)cc1Nc1nc(-c2sc(NC(=O)c3ccco3)nc2C)cs1`, the Potency was active: 14.7 µM. In the case of `CN(CC(=O)Nc1c(Cl)cccc1Cl)C(=O)c1cccc(S(=O)(=O)NCc2ccccc2)c1`, the Potency was inconclusive [inhibitor, single point]. For `Cc1ccc(NC(=O)C2CCN(C(=O)OC(C)(C)C)CC2)cc1S(=O)(=O)N1CCCCC1`, the Potency was active: 13.1 µM. With `O=C(Nc1cccc(NC(=O)c2ccccc2[N+](=O)[O-])n1)c1ccccc1[N+](=O)[O-]` the “activity change, negative = inhibition” value was inactive: -17.1%. For `COc1ccc(C(=O)C(CN2CCOCC2)c2ccccc2)cc1F` (centres undefined), the “activity change, negative = inhibition” value was inactive: 7.05%. For `CC1CC(C)CN(CC(=O)NC(c2ccccc2)c2ccccc2)C1` (centres undefined), the Potency was active: 11.7 µM. For `CC(NC(=O)Nc1cccc(Cl)c1)C(c1cccs1)N1CCCC1` (centres undefined), the Potency was inconclusive [inhibitor, single point]. For `CC1(c2ccc(Cl)cc2)NC(=O)N(CC(=O)N2CCc3ccccc3C2)C1=O` (centres undefined), the Potency was inconclusive [inhibitor, single point].
